According to PubChem BioAssay AID1460 (National Center for Advancing Translational Sciences (NCATS), 2008):
“And” between values parts separate entries of the source, which are not always exact repeats. Equal entries are not always repeated. About 5,800 (2.1%) of roughly 270,000 compounds were called active. Inconclusive means that the source gave no clear call. Such entries were picked first, then a sample of the others. Calls follow the shape of the dose curve; as a rule, active = well fitted inhibition curve with a large enough effect; inconclusive = small, poorly fitted or top-dose-only effect; inactive = flat fitted curve, though single readings scatter. Potencies of inconclusive entries are doubtful fits and often do not repeat.

What follows are compounds tested against Microtubule-associated protein tau (Homo sapiens) (UniProt P10636) (assay: qHTS for Inhibitors of Tau Fibril Formation, Thioflavin T Binding). Details: recombinant tau K18 P301L (four-repeat tau fragment), heparin-induced fibrillization, ThT fluorescence; series mostly up to 57.4 µM.
How it was run: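 Aggregation was driven by heparin (20 uM final) acting on recombinant tau […] bearing P301L in 100 mM sodium acetate pH 7; fibrils were detected with Thioflavin T.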
Also: nearly all actives have a fitted effect of over 55% in size.
Potency is read from the fitted curve at half-maximal effect; tags tell the direction and shape of the fitted curve.

Sequence of UniProt P10636 (P10636 whole entry, looked up, the tested form may be a part): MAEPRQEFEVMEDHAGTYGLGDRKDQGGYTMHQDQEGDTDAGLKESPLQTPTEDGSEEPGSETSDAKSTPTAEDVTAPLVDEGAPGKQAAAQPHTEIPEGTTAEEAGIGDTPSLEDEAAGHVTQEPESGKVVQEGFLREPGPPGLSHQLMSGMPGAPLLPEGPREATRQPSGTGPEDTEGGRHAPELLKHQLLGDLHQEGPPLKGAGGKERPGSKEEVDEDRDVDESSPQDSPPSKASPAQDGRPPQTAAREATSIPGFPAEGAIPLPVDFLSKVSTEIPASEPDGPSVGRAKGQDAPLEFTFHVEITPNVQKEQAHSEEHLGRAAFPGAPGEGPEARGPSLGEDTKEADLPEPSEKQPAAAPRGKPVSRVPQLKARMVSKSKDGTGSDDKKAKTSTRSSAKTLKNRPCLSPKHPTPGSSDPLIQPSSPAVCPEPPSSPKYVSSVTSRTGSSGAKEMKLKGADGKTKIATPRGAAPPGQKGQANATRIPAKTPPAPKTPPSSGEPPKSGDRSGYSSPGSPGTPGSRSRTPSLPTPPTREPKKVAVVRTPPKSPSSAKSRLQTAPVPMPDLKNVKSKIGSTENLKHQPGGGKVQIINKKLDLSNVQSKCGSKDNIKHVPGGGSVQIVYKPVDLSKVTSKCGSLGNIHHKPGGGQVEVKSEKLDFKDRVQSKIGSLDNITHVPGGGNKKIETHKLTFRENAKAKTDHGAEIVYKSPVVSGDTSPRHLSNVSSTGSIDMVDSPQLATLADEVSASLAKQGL

Row | Compound | Potency
1 | O=C(CCCN1C(=O)CSc2ncccc21)N1CCN(Cc2ccccc2)CC1 | inactive
2 | CCN(CC)C(=O)C(=O)c1cn(CCOc2ccccc2)c2ccccc12 | inactive
3 | O=c1[nH][nH]c(-c2ccccc2O)c1C(C[N+](=O)[O-])c1ccc(Cl)cc1Cl (stereo unspecified) | inactive
4 | Cc1nc(-c2ccc(S(=O)(=O)N3CCN(c4ccccc4F)CC3)cc2)co1 | inactive
5 | Cc1ccccc1NC(=O)c1c(C)oc2ccc(O)c(CN3CCCCCC3)c12 | inconclusive: 17.8 µM [inhibitor, partial curve]
6 | FC(F)(F)c1cccc(Nc2nc3nonc3nc2Nc2ccc(Cl)cc2)c1 | inconclusive: 22.4 µM [inhibitor, partial curve, poor fit]
7 | CCOCCCNC(=O)CSCc1nc(-c2ccc(SC)cc2)oc1C | inconclusive: 28.2 µM [inhibitor, partial curve]
8 | COc1ccc(Cn2c(=O)[nH]c3cc(C(=O)NCCCN4CCCCCC4)ccc3c2=O)cc1 | inconclusive: 28.2 µM [inhibitor, partial curve]
9 | COC(=O)C1OC2(OC1C(=O)OC)c1ccccc1-c1ccccc12 (stereo unspecified) | inconclusive: 0.0251 µM [inhibitor, full curve, poor fit]
10 | C[C@H](NC(=O)/C(C#N)=C/c1ccc(O)c(O)c1)c1ccccc1 | inconclusive: 25.1 µM [inhibitor, partial curve]
11 | COc1cc(/C=N/N(C)S(=O)(=O)c2ccc(C)cc2)cc([N+](=O)[O-])c1O | inconclusive: 25.1 µM [inhibitor, partial curve]
12 | Nc1nc2c(nc(Sc3ccc(Cl)cc3)n2C2OC(CO)C(O)C2O)c(=O)[nH]1 (stereo unspecified) | inconclusive: 20 µM [inhibitor, single point]
13 | Cc1ccc(NCCC(=O)c2cccc([N+](=O)[O-])c2)c(C)c1 | inconclusive: 15.8 µM [inhibitor, partial curve]
14 | O=C(CCCCCn1c(=O)[nH]c2ccccc2c1=O)N1CCN(c2cccc(C(F)(F)F)c2)CC1 | inconclusive: 0.708 µM [inhibitor, full curve]
15 | Cc1ccc(-c2nc3sc(CCNC(=O)c4ccc(F)c(F)c4)c(C)n3n2)cc1 | inactive
16 | CCN(CC)CCC(=O)Nc1cccc2c1C(=O)c1ccccc1C2=O | inconclusive: 22.4 µM [inhibitor, partial curve]
17 | CCOc1ccc(C(=O)CN2CCN(S(=O)(=O)c3ccc(Br)cc3)CC2)cc1 | inconclusive: 31.6 µM [inhibitor, single point]
18 | O=C(NCCN1C(=O)S/C(=C/c2cccnc2)C1=O)C1CC(=O)N(Cc2ccccc2)C1 (stereo unspecified) | inconclusive: 2.51 µM [inhibitor, full curve, poor fit]
19 | COc1ccc(OCCCn2c(C3CC(=O)N(c4ccc(F)cc4)C3)nc3ccccc32)cc1 (stereo unspecified) | inconclusive: 10 µM [inhibitor, partial curve]
20 | O=C(CSc1nnc2c(n1)[nH]c1ccccc12)Nc1ccc(S(=O)(=O)Nc2ncccn2)cc1 | inactive
21 | Cc1cc(C)c2c(NC(=O)c3ccccc3Cl)c(C(=O)NCc3ccc(Cl)cc3)sc2n1 | inconclusive: 28.2 µM [inhibitor, partial curve, poor fit]
22 | N#CCSc1nc2c(c(C3CC=CCC3)c1C#N)CCC2 (stereo unspecified) | inconclusive: 44.7 µM [inhibitor, single point]

Row | Compound | Potency
23 | O=C(COc1ccccc1-c1nc(-c2ccccc2)no1)Nc1ccc([N+](=O)[O-])cc1 | inactive
24 | CN1CCN(CCCNC(=O)c2ccc(/C=C3\Sc4ccccc4N(Cc4ccccc4F)C3=O)cc2)CC1 | inconclusive: 28.2 µM [inhibitor, partial curve]
25 | O=C(CSc1nnc(-c2ccc(Cl)cc2)n1Cc1ccco1)NCc1ccc2c(c1)OCO2 | inactive
26 | Cc1cccc2nc(CSc3nc4ccc([N+](=O)[O-])cc4[nH]3)c(Br)n12 | inconclusive: 3.98 µM [inhibitor, full curve]
27 | Cc1cccc(C(=O)n2c(=S)nc3cc(C)ccn32)c1 | inconclusive: 3.16 µM [inhibitor, partial curve]
28 | CCN(CC)C(=O)c1ccc2c3c(cccc13)C(=O)N(CCc1ccc(OC)c(OC)c1)C2=O | inactive
29 | CCN(CC)C(=O)CSc1nc2c(sc(=S)n2Cc2ccco2)c(=O)n1-c1ccccc1 | inconclusive: 17.8 µM [inhibitor, partial curve, poor fit]
30 | C=C1C2=CC(=O)OC(c3ccoc3)[C@]2(C)CCC1[C@]1(C)C=CC(=O)C(C)(C)C1CC(=O)OC (stereo partly specified) | inconclusive: 39.8 µM [inhibitor, single point]
31 | O=C(N/C(=C/c1ccco1)C(=O)N1CCc2ccccc21)c1ccco1 | inconclusive: 35.5 µM [inhibitor, single point]
32 | COc1c(C2=CC(=O)N(C)C2=O)c2c(n1C)C(=O)c1ccccc1C2=O | active: 14.1 µM
33 | COc1ccc(-c2coc3cc(O)cc(O)c3c2=O)cc1 | inconclusive: 2.82 µM [inhibitor, full curve] and inconclusive: 2.24 µM [inhibitor, partial curve] and inconclusive: 14.1 µM [inhibitor, partial curve]
34 | CCC(=O)/C=C1\Sc2ccc(OC)cc2N1CC | inconclusive: 31.6 µM [inhibitor, single point]
35 | Cc1ccc2nc(-c3ccc4c(c3)OCCO4)cn2c1 | inconclusive: 10 µM [inhibitor, partial curve]
36 | CCOc1cccc2sc(N3CCN(C(=O)c4ccco4)CC3)nc12 | inconclusive: 22.4 µM [inhibitor, partial curve]
37 | COc1ccccc1OCCOCCOc1c(C)cc(C)cc1Br | inconclusive: 22.4 µM [inhibitor, single point]
38 | CC(=O)OCCN(C)c1cc(SC(C)C)c2nonc2c1[N+](=O)[O-] | active: 14.1 µM
39 | Cn1c(CN2CCOCC2)nc2cc(NC(=O)c3ccccc3[N+](=O)[O-])ccc21 | inactive
40 | COc1cc(C2N(c3ccccn3)C(=O)C3CCCN32)cc(OC)c1OC (stereo unspecified) | inactive
41 | COc1ccc(C(=O)c2oc3ccc(Br)cc3c2NC(C)=O)cc1 | inconclusive: 11.2 µM [inhibitor, partial curve, poor fit]
42 | O=C(CC1(O)C(=O)Nc2ccccc21)c1ccccc1O (stereo unspecified) | inconclusive: 35.5 µM [inhibitor, partial curve, poor fit]
43 | O=C1[C@@H]2Cc3c([nH]c4ccccc34)[C@@H](c3ccccc3)N2C(=O)[C@@H]2Cc3c([nH]c4ccccc34)[C@@H](c3ccccc3)N12 | inactive
44 | COc1cc(OC)c2ccc(=O)oc2c1C(CC(=O)N1CCCC(C)C1)c1ccc2c(c1)OCO2 (stereo unspecified) | inactive

Row | Compound | Potency
45 | Cc1cccc(-n2c3nc(=O)[nH]c(=O)c-3cc3ccc(Cl)cc32)c1C | inactive
46 | O=C(CSc1nnc(SCc2ccccc2)s1)N/N=C/c1c[nH]c2ccccc12 | inactive
47 | COc1ccc(OC)c(-c2noc(N3CCN(c4cccc(C(F)(F)F)c4)CC3)n2)c1 | inconclusive: 17.8 µM [inhibitor, single point]
48 | COc1cccc(CC2(CO)CCCN(Cc3ccc4c(c3)OCCO4)C2)c1 (stereo unspecified) | inactive
49 | O=C(CSc1nc2c([nH]c3ccccc32)c(=O)n1-c1ccccc1)N1CCCCC1 | inactive
50 | Cc1cc(-c2nnc(-c3cc4ccccc4oc3=O)o2)c(C)n1-c1ccccc1 | inconclusive: 10 µM [inhibitor, partial curve]
51 | COc1ccc(C(=O)/C=C/c2cccs2)c(OC(=O)c2cccc([N+](=O)[O-])c2)c1 | active: 3.98 µM
52 | COc1ccc(-c2cn3c(C)c(C(=O)Nc4ccncc4)sc3n2)cc1 | inconclusive: 0.708 µM [inhibitor, full curve]
53 | Cc1ccc(N2CC(C(=O)NCc3ccc4c(c3)OCO4)CC2=O)cc1C (stereo unspecified) | inactive
54 | COc1ccc(-c2nc(C)c(CCNC(=O)c3ccc(C(F)(F)F)cc3)s2)cc1OC | inconclusive: 1.41 µM [inhibitor, full curve]
55 | Cc1ccc(CN2C(=O)c3ccccc3Sc3ccc(C(=O)N4CCOCC4)cc32)cc1 | inactive
56 | Cc1cccc(C(=O)Nc2ccc(N3CC=C(c4ccccc4C)CC3)c(C(=O)O)c2)c1 | inconclusive: 8.91 µM [inhibitor, partial curve]
57 | c1ccc(CCN2CCN(c3ncnc4c3cnn4-c3ccccc3)CC2)cc1 | inconclusive: 15.8 µM [inhibitor, partial curve]
58 | COC(=O)c1ccccc1NC(=O)CNc1cc(OC)c(OC)cc1C | inconclusive: 17.8 µM [inhibitor, partial curve]
59 | COc1ccc(-c2cn3cc(C)ccc3n2)cc1F | inconclusive: 5.62 µM [inhibitor, partial curve]
60 | COc1cccc([C@@H]2Oc3ccc(Br)cc3C[C@H]2OC(=O)Nc2ccc(C)c(Br)c2)c1 | inactive
61 | CCCc1cc(N2CCN(c3ccccc3F)CC2)n2cnnc2n1 | inactive
62 | Cc1ccc(OCC(=O)O/N=C(\N)c2ccccn2)cc1C | inconclusive: 2.82 µM [inhibitor, partial curve]
63 | Cc1ccccc1N1C(=O)C(Cl)=C(N2CCCCCC2)C1=O | inconclusive: 17.8 µM [inhibitor, partial curve]
64 | COC(=O)NC(c1ccccc1)[C@]1(C(C)=O)CCCC1=O (stereo partly specified) | inconclusive: 7.94 µM [inhibitor, single point]
65 | CCOC(=O)C(=O)/C(C#N)=C/Nc1ccc(F)cc1 | inconclusive: 10 µM [inhibitor, partial curve]
66 | Cn1c(SCC(=O)NCc2ccco2)nnc1-c1ccccc1 | inactive
